According to PubChem BioAssay AID1476 (National Center for Advancing Translational Sciences (NCATS), 2009):
Hit rate of the full screen: of about 200,000 compounds, about 4,500 (2.2%) were called active. The shares of active, inactive and inconclusive entries below differ from those in the screen. Calls follow the shape of the dose curve; as a rule, active = well fitted inhibition curve with a large enough effect; inconclusive = small, poorly fitted or top-dose-only effect, or effect the other way; inactive = flat fitted curve, though single readings scatter. Potencies beside an inconclusive call are fits to weak or partial responses and may not hold up.

What follows are compounds tested against Cruzipain (Trypanosoma cruzi) (UniProt P25779) (assay: qHTS Assay for Promiscuous and Specific Inhibitors of Cruzain (without detergent)). Conditions: purified cruzain, Z-FR-AMC fluorescence, no detergent.
UniProt P25779, sequence (P25779 whole entry, looked up): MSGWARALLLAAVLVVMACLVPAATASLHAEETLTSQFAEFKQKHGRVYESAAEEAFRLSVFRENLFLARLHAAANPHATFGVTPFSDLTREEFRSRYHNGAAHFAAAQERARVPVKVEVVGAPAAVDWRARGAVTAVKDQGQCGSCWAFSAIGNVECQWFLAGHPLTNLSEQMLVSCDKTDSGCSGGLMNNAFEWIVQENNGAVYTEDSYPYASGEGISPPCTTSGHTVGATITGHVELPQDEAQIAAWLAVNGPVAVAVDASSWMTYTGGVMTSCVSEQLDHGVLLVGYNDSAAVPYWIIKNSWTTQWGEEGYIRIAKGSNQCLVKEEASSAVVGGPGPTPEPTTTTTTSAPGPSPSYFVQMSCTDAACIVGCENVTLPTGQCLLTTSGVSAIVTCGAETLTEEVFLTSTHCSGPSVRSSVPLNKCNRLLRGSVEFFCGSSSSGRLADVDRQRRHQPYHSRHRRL
Outline: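 Detergent-free condition (0.00005% Triton X-100) in acetate buffer pH 5.5 with DTT. 1.5 nM enzyme and compound were pre-mixed 15 min, then 2 uM Z-FR-AMC substrate added; reaction progress from fluorescence change between first and third reads (60 s).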
Also: nearly all actives have a fitted effect of over 40% in size.
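For max response, negative = inhibition in this document: plate controls were enzyme without inhibitor for no effect and buffer without enzyme for full effect.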
Potency is read from the fitted curve at half-maximal effect; tags tell the direction and shape of the fitted curve.

Compound | Potency | max response, negative = inhibition
CCOc1cccc(-c2nnc3sc(-c4ccc(C)cc4)nn23)c1 | inconclusive: 25.1 µM [activator, single point] | 
COc1ccc(-c2cc(C(=O)N3CCN(c4ccccc4)CC3)no2)cc1OC | inconclusive: 39.8 µM [activator, single point] | 
Cc1noc(C)c1C(=O)N1CCC[C@@]2(CCN(c3cccc(-c4ccccc4)c3)C2)C1 | inconclusive: 39.8 µM [activator, single point] | 
CC(=O)C1=C(C)NC(SCC(=O)c2ccc(C)cc2)=C(C#N)C1c1ccco1 (centres undefined) |  | inactive: -29.1%
CCOc1ccccc1NC(=O)Cc1coc2c(C)c(C)ccc12 |  | inactive: -1.56%
CCOc1ccccc1NC(=O)CN1C(=O)COc2ccc(S(=O)(=O)N3CCCCCC3)cc21 |  | inactive: -7.25%
COC(=O)[C@@]1(Cc2ccc(OC)cc2)[C@H]2c3cc(C(=O)N(C)C)n(Cc4cc(C)n(C)n4)c3C[C@H]2CN1C(=O)c1ccccc1 | inconclusive: 15.8 µM [activator, partial curve] | 
COc1cccc(NC(=O)CSc2cc(=O)n(C)c3ccc(Cl)cc23)c1 |  | inactive: -14.5%
Cc1c(C(=O)Nc2ccc(-c3nnc4n3CCCCC4)cc2)oc2c1ccc1ccccc12 | inconclusive: 39.8 µM [activator, single point] | 
COc1c(C)cc(S(=O)(=O)Nc2cccc(-c3ccc(N4CCOCC4)nn3)c2)c(C)c1C | inconclusive: 31.6 µM [activator, single point] | 
CCOC(=O)c1c(N)n(CCCOC(=O)c2ccco2)c2nc3ccccc3nc12 | inconclusive: 39.8 µM [activator, single point] | 
CCOc1ccc(Br)cc1S(=O)(=O)Nc1ccc(NC(=O)c2ccccc2F)cc1 | active: 25.1 µM | 
Cc1sc2nc(SCC(=O)NCc3ccco3)n(CCc3ccccc3)c(=O)c2c1C | inconclusive: 31.6 µM [inhibitor, single point] | 
COc1ccc(C(=O)N(Cc2nc(-c3ccc(C)cc3)no2)C(C)C)cc1OC | inconclusive: 39.8 µM [activator, single point] | 
Cc1cccc(NC(=O)c2oc3c(c2C)-c2[nH]ncc2CC3)c1C | inconclusive: 25.1 µM [inhibitor, single point] | 
CN(C)S(=O)(=O)c1cc(NC(=O)[C@H](Cc2ccccc2)N2C(=O)c3ccccc3C2=O)ccc1Cl | active: 20 µM | 
CCOC(=O)c1cccc(NC(=O)CC(c2cc(OC)c(OC)c(OC)c2)N2Cc3ccccc3C2=O)c1 (centres undefined) | inconclusive: 31.6 µM [activator, single point] | 
COCCN1C=C(C(=O)OC)C(c2cc3c(cc2Br)OCO3)C(C(=O)OC)=C1 | inconclusive: 31.6 µM [activator, single point] | 
CC(C)(C)n1nnnc1C(c1ccncc1)N(Cc1ccccc1)Cc1ccco1 (centres undefined) | inconclusive: 39.8 µM [activator, single point] | 
CC(C)CCN1C(=O)c2ccc(C(=O)OCn3nnc4ccccc4c3=O)cc2C1=O | inconclusive: 31.6 µM [activator, single point] | 

Compound | Potency | max response, negative = inhibition
CCOc1ccc(S(=O)(=O)N(CC(=O)Nc2cccnc2)c2ccccc2)cc1 |  | inactive: 9.17%
CC1=C(C(N)=O)C(c2ccc(C(C)C)cc2)n2nc(SCc3ccccc3)nc2N1 (centres undefined) | inconclusive: 25.1 µM [inhibitor, single point] | 
O=C(C1=NN(c2ccccc2)C2C(=O)N(c3cccc(Cl)c3)C(=O)C12)c1ccccc1 (centres undefined) | inconclusive: 31.6 µM [inhibitor, single point] | 
COc1ccc(N2CCN(C(=O)CCc3c(C)nc4c(-c5ccccc5)c(C)nn4c3C)CC2)cc1 | inconclusive: 15.8 µM [activator, partial curve] | 
CCOC(=O)C(C)N1N=C(/C=C/c2ccc(C)cc2)CCC1=O (centres undefined) | inconclusive: 39.8 µM [activator, single point] | 
COc1cccc(-c2nn3c(-c4ccccn4)nnc3s2)c1 |  | inactive: 0.528%
CC(C)[C@H](Nc1ccc(S(=O)(=O)N2CCOCC2)cc1[N+](=O)[O-])C(=O)OCC(=O)N(C(C)C)C(C)C | inconclusive: 31.6 µM [activator, single point] | 
CC(C)(Oc1ccc(Cl)cc1)C(=O)N/N=C/c1cn[nH]c1-c1ccccc1 | inconclusive: 39.8 µM [activator, single point] | 
NC(=O)c1ccc(NC(=O)CSC2=Nc3ccccc3C3CC=NN23)cc1 (centres undefined) | inconclusive: 39.8 µM [inhibitor, single point] | 
CC(=O)N1CCC2(CCCN(c3ccccc3)C2)CC1 |  | inactive: -4.35%
Cc1ccc(OCC(=O)NC(=S)Nc2ccc(Br)c(C)n2)cc1 | active: 15.8 µM | 
Cc1c(NC(=O)/C(C#N)=C/C2CC=CCC2)c(=O)n(-c2ccccc2)n1C (centres undefined) | inconclusive: 39.8 µM [activator, single point] | 
CCN(CC)S(=O)(=O)c1ccc(N2CCOCC2)c(NC(=O)c2c3c(nc4ccccc24)CCC3)c1 | inconclusive: 39.8 µM [activator, single point] | 
C=CCn1c(SCC(=O)NCC)nnc1-c1cc2c(s1)CCC(CC)C2 (centres undefined) | inconclusive: 25.1 µM [activator, single point] | 
O=C(Cc1ccc(Cl)cc1)Nc1ccccc1Sc1ccccc1 |  | inactive: -17%
COc1ccc(CNC(=O)CCc2cn(Cc3cc(C)ccc3C)c3ccccc23)cc1OC | inconclusive: 31.6 µM [activator, single point] | 
O=C(c1cccc2ccccc12)N1CCN(c2ccc([N+](=O)[O-])c(NCc3ccco3)c2)CC1 | inconclusive: 39.8 µM [inhibitor, single point] | 
O=c1cc(-c2ccccc2)nc(SCc2nc(-c3ccc(C(F)(F)F)cc3)no2)[nH]1 | inconclusive: 6.31 µM [inhibitor, single point] | 
Cc1nn(Cc2ccccc2Cl)c(C)c1NC(=O)CCCn1nc([N+](=O)[O-])c(Cl)c1C | inconclusive: 39.8 µM [activator, single point] | 
